Cell count data for nine compounds are collected here from the supplement of paper PMC4604168 (melanoma cell lines).

Structures are written as SMILES. The list shows a part of the results. Many values rest on one well or one pass, so single values are uncertain.

Assay in all cases: cell count relative to DMSO control; melanoma cells; higher = more viable cells
Common to all, as to conditions: library dose: low library concentration; 72 h

In test [1] the test system is MZ2-MEL.
Test [2] relates to MeWo.
Test [3] concerns RPMI7951.
Test [4] deals with RVH-421.
Test [5] relates to SkMel28.
The subject of test [6] is SkMel30.
In test [7] the test system is SkMel5.
Test [8] relates to UACC257.
Test [9] concerns UACC62.
Test [10] concerns WM115.
The test system of test [11] is WM1716.
Test [12] concerns WM1745.
The test system of test [13] is WM3526.
For test [14], the system named is WM3619.
Test [15] concerns WM451Lu.
Test [16] concerns SkMel2.
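Also: cell number obtained by counting DAPI-stained nuclei in high-throughput microscope images with image analysis software, screen run in 1,536-well plates.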

With `O=C(Nc1ccccc1)c1cc([N+](=O)[O-])ccc1Cl` + Cn1cc(/C=C2\C(=O)Nc3cccnc32)c2ccccc21 [GW441756] (first compound 2 µM, partner dose 0.4 µM), the cell count in test [1] is 94.5%; in test [2], 100%; in test [3], 89.3%; in test [4] it was 98.1%; in test [5], 83.3%; in test [6], 87.7%. In addition, the cell count came to 76.9% in test [7]; 87.3% in test [8]; 82.7% in test [9]; 115% in test [10]; 89.7% in test [11]; 89.9% in [12]. The cell count was determined as 116% in test [13], 107% in [14] and 113% in test [15].

As for `O=C(O)[C@@H]1[O][Sb](=[O])([O][Sb]2(=[O])[O][C@H]([C@H](O)CO)[C@H](O)[C@H](C(=O)O)[O]2)[O][C@H]([C@H](O)CO)[C@@H]1O` (stereo partly drawn) [stibogluconate] + N#Cc1c(O)c2c(-c3ccc(-c4ccccc4O)cc3)csc2[nH]c1=O [A769662] (first compound 2 µM, partner dose 2 µM), the cell count was found to be 104% in [2]; 99.5% in [3]; 103% in [4]; 93.9% in test [5]; 110% in test [16]; 131% in test [6]. For the same compound, the cell count was 96.9% in test [7]; 107% in test [8]; 98.3% in test [9]; 107% in test [10]; 102% in test [11]; 112% in test [12]. Further, the values for the cell count in [13], in test [14] and in [15] were 109%, 93% and 104%, respectively.

As for `O=C(Nc1cc(C(F)(F)F)cc(C(F)(F)F)c1)c1cc(Cl)ccc1O` + CCCCCCCCc1ccc(CCC(N)(CO)CO)cc1 [fingolimod] (first compound 0.016 µM, partner dose 2 µM), the cell count was 94.5% in [1]; 92.4% in [2]; 99.2% in test [3]; 88.6% in test [4]; 91.1% in test [5]; 119% in test [6]. Besides, the cell count in test [9] is 102%; in test [10] it was 107%; in test [11], 99%; in test [12] it was 119%; in [13], 100%; in test [14] it was 100%. Moreover, the cell count in test [15] came to 125%.

In the case of `Cn1nnc2c(C(N)=O)ncn2c1=O` [temozolomide] + CCc1ccc(CCOc2ccc(CC3SC(=O)NC3=O)cc2)nc1 [pioglitazone] (first compound 2 µM, partner dose 2 µM), the cell count in test [1] is 83.5%; in test [2], 97.7%; in test [3], 89.2%; in test [4] it was 564%; in test [5], 77%; in [6], 94.6%. Also, the cell count is 97.3% in [7]; 114% in test [8]; 81.7% in [9]; 92.5% in test [10]; 82.5% in [11]; 90.8% in test [12]. Also, the cell count in [13] amounted to 104%; in test [14], 97%; in test [15], 109%.

With `O=C(Nc1ccccc1)c1cc([N+](=O)[O-])ccc1Cl` + O=c1cc(-c2cccc3c2Sc2ccccc2S3)oc(N2CCOCC2)c1 [KU55933] (first compound 2 µM, partner dose 1 µM), the cell count in test [1] was found to be 102%; in [2], 90.3%; in test [3] it was 96.6%; in test [4] it was 673%; in test [5] it was 86.5%; in [6], 89.7%. Also, the cell count stood at 87.3% in test [7]; 94% in [8]; 113% in test [9]; 95.2% in test [10]; 97% in test [11]; 97.5% in test [12]. For the same compound, the cell count in [13] came to 99.2%; in test [14], 123%; in [15] it was 94.8%.

Regarding `O=C(Nc1ccccc1)c1cc([N+](=O)[O-])ccc1Cl` + N#Cc1c(O)c2c(-c3ccc(-c4ccccc4O)cc3)csc2[nH]c1=O [A769662] (first compound 2 µM, partner dose 2 µM), the cell count in test [1] came out at 103%; in test [2], 107%; in [3] it was 110%; in test [4], 105%; in test [5], 90.6%; in test [6] it was 120%. Moreover, the cell count in test [7] was found to be 89.5%; in test [8] it was 97.2%; in [9], 99.8%; in test [10], 95.8%; in [11], 105%; in [12] it was 108%. In addition, the cell count in [13] worked out at 96.7%; in test [14], 88%; in test [15], 103%.

As to `Cc1cc(N2CCOCC2)cc2[nH]c(-c3c(NC[C@@H](O)c4cccc(Cl)c4)cc[nH]c3=O)nc12` + O=c1cc(-c2cccc3c2Sc2ccccc2S3)oc(N2CCOCC2)c1 [KU55933] (first compound 0.2 µM, partner dose 1 µM), the cell count in test [1] came out at 100%; in [2], 83.9%; in [3], 90.5%; in test [4] it was 123%; in test [5] it was 82.1%; in test [6], 80.3%. The cell count in test [7] turned out to be 92.2%; in [8], 74.7%; in test [9], 82.7%; in test [10] it was 110%; in test [11], 89.1%; in test [12] it was 88.5%. Also, the values for the cell count in [13], in test [14] and in test [15] were 79.7%, 80.6% and 109%, respectively.

As for `O=C(O)[C@@H]1[O][Sb](=[O])([O][Sb]2(=[O])[O][C@H]([C@H](O)CO)[C@H](O)[C@H](C(=O)O)[O]2)[O][C@H]([C@H](O)CO)[C@@H]1O` (stereo partly drawn) [stibogluconate] + COc1cc2ncnc(Nc3ccc(Oc4ccccc4)cc3)c2cc1OC [SrcI1] (first compound 2 µM, partner dose 2 µM), the cell count in test [2] came out at 104%; in test [3], 104%; in test [4], 116%; in test [5] it was 112%; in [16], 113%; in [6], 95%. Moreover, the cell count was found to be 110% in test [7]; 144% in test [8]; 120% in test [9]; 110% in test [10]; 122% in test [11]; 86% in test [12]. Moreover, the figures for the cell count in test [13], in test [14] and in [15] were 95.2%, 117% and 110%, respectively.

For the compound `Cc1cc(N2CCOCC2)cc2[nH]c(-c3c(NC[C@@H](O)c4cccc(Cl)c4)cc[nH]c3=O)nc12` + O=C1NC(=O)/C(=C/c2ccc(-c3ccc(F)cc3O)o2)S1 [AS252424] (first compound 0.2 µM, partner dose 1 µM), the cell count in test [1] was 106%; in test [2], 110%; in test [3], 102%; in test [4], 150%; in test [5] it was 92.6%; in [6] it was 71.3%. For the same compound, the cell count in test [7] was determined as 98.6%; in test [8], 94.8%; in [9], 117%; in test [10], 110%; in test [11], 132%; in test [12] it was 73.9%. The cell count in [13] came out at 66.2%; in test [14], 101%; in test [15], 82.1%.
